Measurements: PMC12136788
The other results are listed elsewhere or left out.

T1: UNK ZnF1-3 (human, UniProt Q9C0B0 31-174)
T1 sequence: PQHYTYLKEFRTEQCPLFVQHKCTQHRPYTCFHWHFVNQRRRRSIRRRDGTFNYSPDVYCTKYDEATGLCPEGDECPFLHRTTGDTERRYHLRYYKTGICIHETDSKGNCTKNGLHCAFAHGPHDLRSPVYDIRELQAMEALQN

B1: 81579510_81579630_3752_3pUTR_ENSG00000153956_ENST00000356860|human|control|control (ssRNA)
RNA: GGGAGUUCUACAGUCCGACGAUCACACGUUUAAGGAUCUGACACCCUGACAUGCAGCCAGUGGGUGCCUUAGGAGUCUGCGCCUUAGUGUUAUGCCAUGGAACAGGCCCAGCUAAUGUUUGUCUGAUUUUAUAGCUGACCCUACAACAGAGGAUUGAGCAUCA
B2: chr11:29607950:29607951:+_ENSMUSG00000020458_ENSMUST00000102843|mus_mus|FALSE|FALSE (ssRNA)
RNA: GGGAGUUCUACAGUCCGACGAUCGGGUGAGGAAUCAUCCACGAGCUCACAGUGAUCAGGCACCGACUUCUCAAAUUUUGCUAUUUCUGAAUAAUUAGAGAACUCUGGACUUGGCUCAGUGGAGAGCUUUGUUUCUUUAAUUAACAACAGAGGAUUGAGCAUCA
B3: chr1:212156110:212156111:-_ENSG00000143493_ENST00000366992|hu_mus|motif|central (ssRNA)
RNA: GGGAGUUCUACAGUCCGACGAUCUCCAUGAGCUGCGAUGCCCCUGUUGCUAUGGUAACAGCAUUCUUGAGCUAAUUUGACGGAAUCAGAAGAUCUGGGGGAAGAGCCUACAUUUCCGGGAACUACACUGAAGUAAUGUUUAAUCAACAGAGGAUUGAGCAUCA
B4: chr14:28285125:28285126:+_ENSMUSG00000040651_ENSMUST00000022450|mus_mus|FALSE|FALSE (ssRNA)
RNA: GGGAGUUCUACAGUCCGACGAUCCUCAGAAAGGCGAUUCAUCUUCUCUUGUGCUGAAAAGAUAGGUGUGGAAAUUGCACUAACAUAUGAAACAUUCUUCUCCUUCAAAAUCUCUUCUACCUUCCUAGAGAAAAGAUGGAACUCCAACAGAGGAUUGAGCAUCA
B5: chr5:135508174:135508175:+_ENSG00000113658_ENST00000545279|hu_hu|FALSE|FALSE (ssRNA)
RNA: GGGAGUUCUACAGUCCGACGAUCACUAGUAGAAGAUGCAUGAAAAGCUUCUCCAACACGAUUGUUUAAUUCAUAGUAGACUAUUGAACACCAAUGUUUAGGCUCUUCAUAGGCAACAGGCUGAACAUCCCUGCUGGAUAUACUCAACAGAGGAUUGAGCAUCA
B6: chr1:60041781:60041782:+_ENSMUSG00000041040_ENSMUST00000036540|mus_hu|mus_mus_mus_hu_False|28_108 (ssRNA)
RNA: GGGAGUUCUACAGUCCGACGAUCAAGAGGAGUGAAUUAAAGUAAAUGCAGUAGUGGCAAAUUUUCUUUUAUUUUCCUUCACAAAAGAAAAUCUUUAUAACCCAGUCCAAUCCCAGAACAUAGUGAAAGCUAUAAAUUCUGACUCAACAGAGGAUUGAGCAUCA
B7: chr2:153581767:153581768:+_ENSMUSG00000027479_ENSMUST00000028981|mus_hu|FALSE|FALSE (ssRNA)
RNA: GGGAGUUCUACAGUCCGACGAUCCACAGGAAUUAUUUUGUCAACACCCAUUCUCUUAAAACCUGCUUGUAGUAUUUUGAAGUUCUGGAUGUACUCGUGUUCUAGCUUAGCUUGGAAUUUCACUUUCUUCAAGGCAAUGGAGCCCAACAGAGGAUUGAGCAUCA
B8: chr11:77340908:77340909:-_ENSG00000074201_ENST00000525064|hu_mus|FALSE|FALSE (ssRNA)
RNA: GGGAGUUCUACAGUCCGACGAUCGUUUGGAUCCCUGGACACCGCAUGUAAACUAAUGGUGGGGUAUUCCAGUGAGAAUCCUAAUCCCGAACCAUCUAACCAGGACAGGCGGCUCUCCGCGAUGUAAAGCGUGCCGGUGCCGAGCAACAGAGGAUUGAGCAUCA
B9: 122144004_122144124_3561_3pUTR_ENSG00000114030_ENST00000344337|human|control|control (ssRNA)
RNA: GGGAGUUCUACAGUCCGACGAUCCACACUCUUGGCUGAUAAAUGUCCUUUGUCUUUGACUCUUUCUAGUUUGAAUGAAGUGGAUUUUUUAAAAGUUUAAAUCAGGUCACAUAAGUUGGCUGCUUAAAUAACAUCAUGAUGAGGCAACAGAGGAUUGAGCAUCA
B10: 100373906_100380083_1001_CDS_ENSG00000136925_ENST00000341170|human|control|control (ssRNA)
RNA: GGGAGUUCUACAGUCCGACGAUCGACUUCCACAUAAAGUCUGGUAGCCAAUUUGCUUCCACCAACUGUCCCAUUGAUUCCUUCUGCAGCAAUUCGAAUCUUGCCUGUGAGGUGCAGGUGCUGACACAGAGCUGUCUGCCAGGCCAACAGAGGAUUGAGCAUCA
B11: chr1:39494564:39494565:+_ENSG00000168653_ENST00000372967|hu_hu|hu_hu_hu_mus_True|48_68 (ssRNA)
RNA: GGGAGUUCUACAGUCCGACGAUCAUGCAUUCGCCUCAUCGUUUUGUACCGAAGCAAGCACUCUUCGAAAUCAUCAUACUCUAUCUUGCACUCUUUCUUCGCCCGGGUCCCACCGAUCCCGUGUGCACACUCUAUCCACUCUUUCAACAGAGGAUUGAGCAUCA
B12: chr2:9570881:9570882:+_ENSG00000119203_ENST00000238112|hu_mus|hu_hu_hu_mus_False|58_98 (ssRNA)
RNA: GGGAGUUCUACAGUCCGACGAUCACUUGUCUUCUGAAGAAACCAGGGCAGGGCUCCACAGUGAUCCAAAUGGAAAUGACUAAUUAACAGAAGGUCGAUCUCAGCUGGGUCGAUAAGGUCAAUGUAAGGAAGGGCAUCCAUUCCCAACAGAGGAUUGAGCAUCA
B13: 140561975_140562095_3098_CDS_ENSMUSG00000036622_ENSMUST00000037055|mouse|control|control (ssRNA)
RNA: GGGAGUUCUACAGUCCGACGAUCCACACUCAGCAGCGCCCCUGGCGGCCGCGCUCGCACCAAGGUCAGUGCAGGGCCUGUGCGGCUCAUGAGCACCGCAACCGUGGUGGUGAUGACCAGGUCAAUGGCCAAGAACUGUAGGUCCAACAGAGGAUUGAGCAUCA
B14: chr7:106468345:106468346:+_ENSMUSG00000055407_ENSMUST00000127492|mus_mus|FALSE|FALSE (ssRNA)
RNA: GGGAGUUCUACAGUCCGACGAUCACCAAACAUUGCUUGAGGAACCACGGUCAGUUUUGUCCAGUACACUUGAGAGACAGAAUAAGACCUGGAGAGCUUUGUUUGUAAACAGUAGAAAUUAAAGGGCAUUUCUUGUGAGUGGAGCAACAGAGGAUUGAGCAUCA
B15: chr15:57523399:57523400:+_ENSG00000140262_ENST00000343827|hu_hu|motif|central (ssRNA)
RNA: GGGAGUUCUACAGUCCGACGAUCAUCUUGCAUAAAGAAAGUGCUAGCGAACAUACUGGUUGGUGGCUUAGGAGAUGGAUAACGGGGAGAUUCACGGUUGAAAUCAUCUGAAUUUGGGGAUGGUGCAUAUACCGUUUUCCCAUUCAACAGAGGAUUGAGCAUCA
B16: chr12:493273:493274:-_ENSG00000073614_ENST00000399788|hu_mus|hu_hu_hu_mus_False|38_58 (ssRNA)
RNA: GGGAGUUCUACAGUCCGACGAUCUUUUCUCUCCACCACAGGGAUCUUCAAUGUAGAUCCUUGAAGUUCCCAAAAUUUUGCUAGUUGAUCCAAGAAGUCCAAUCUCACUCUAGUCAUUGCCUCAAGUUCAUUCAGGCGCUGGACCAACAGAGGAUUGAGCAUCA
B17: 13810621_13810741_1690_CDS_ENSMUSG00000022682_ENSMUST00000023363|mouse|control|control (ssRNA)
RNA: GGGAGUUCUACAGUCCGACGAUCCACACAAGGGUCAAAGGGGAAGAAAGUGUCCAGUGGGUUGGUGCAGGUCUGCACGGAGUCUCCACCAGCGGUGCUGCGGAUAACGGGGAGCAUCUGGCGACUGUUCCUCUCCAUGAUGGUCAACAGAGGAUUGAGCAUCA
B18: chr17:57652765:57652766:+_ENSG00000108406_ENST00000251241|hu_mus|motif|central (ssRNA)
RNA: GGGAGUUCUACAGUCCGACGAUCAUCAUAAUCAUAGUCAACAGACUCCGCCAUCUGAAAGAGCAGCUCGCAACUCUUCUCGGUCUCAAACUGGCCAGUCAGAAAAACUAAGAUGUCUCCAGCCAUUUCAUUCAAAUGAAUAUCCAACAGAGGAUUGAGCAUCA
B19: chr2:160604994:160604995:+_ENSG00000136536_ENST00000409591|hu_mus|FALSE|FALSE (ssRNA)
RNA: GGGAGUUCUACAGUCCGACGAUCUCUUGAAGACUCAUCCCUUCCCUCUCGCCUCCUUCUCGAGAACAAAGGUGUGCAUCUAUUUCUAAGUGAAGAAGACAACCAUGGUCCUGAAUUUCUACCUUCUGAUUCUUGGUUAAAAUUCAACAGAGGAUUGAGCAUCA
B20: chr12:21919153:21919154:-_ENSG00000121361_ENST00000240662|hu_mus|motif|central (ssRNA)
RNA: GGGAGUUCUACAGUCCGACGAUCAUACAGGGGGCUACGCUUGUCAAUCACGUGGCAGAUGAUCAAUGGGGCCACGGGGAAGAUAUUAUUGCUCUCGAUGGGAUUAUCAACAGGAAUGUCCUGCUGAUGAAUAGGCACCACCUCCAACAGAGGAUUGAGCAUCA
B21: chr12:32445735:32445736:+_ENSMUSG00000035933_ENSMUST00000036862|mus_mus|motif|central (ssRNA)
RNA: GGGAGUUCUACAGUCCGACGAUCUCGAGCUCUUGCAAUAAAGAGUAGAUCAUUCUCUAUUACUUCUAUUCCAGAAAGAUCGGUUCCUUGAGAAAGAUAAUCAAGUUCAUUGAGACUCUGAGCAGCUUUUGUUAUCUCUCUACUCAACAGAGGAUUGAGCAUCA
B22: chr2:48026839:48026840:+_ENSG00000116062_ENST00000540021|hu_hu|hu_hu_hu_mus_False|38_108 (ssRNA)
RNA: GGGAGUUCUACAGUCCGACGAUCAUAGUGUGCCACUAGCGUCCUAAAUCUGGAACAGUGGCGGUCAUCCGAAAACUGGCCGAUGAAAAACUUGCCCAGUGAAGUAUCCACAAAGCAAACACCAUACACACGAGUGUGACCAGACAACAGAGGAUUGAGCAUCA

target: T1, UNK ZnF1-3; assay: nsRBNS (natural sequence RNA bind-n-seq); RBNS binding buffer (assumed for nsRBNS): 25 mM Tris pH 7.5, 150 mM KCl, 3 mM MgCl2, 0.01% Triton X-100, 500 ug/ml BSA, 20 U/ml SUPERase-In, 4 C; UNK is unkempt and MSI1 is Musashi-1; names of the RNAs are library labels; protein concentration not given here; high values mean tight binding

Row | Binder | binding signal [enrichment R]
1 | B1 | 0.315
2 | B2 | 1.08
3 | B3 | 1.55
4 | B4 | 1.01
5 | B5 | 2.02
6 | B6 | 0.616
7 | B7 | 0.859
8 | B8 | 0.705
9 | B9 | 1.15
10 | B10 | 0.99
11 | B11 | 0.681
12 | B12 | 1.35
13 | B13 | 0.722
14 | B14 | 1.31
15 | B15 | 1.17
16 | B16 | 0.895
17 | B17 | 1.12
18 | B18 | 1.04
19 | B19 | 1.26
20 | B20 | 0.876
21 | B21 | 0.716
22 | B22 | 1.07
